The values that follow come from PubChem BioAssay AID1508624 (National Center for Advancing Translational Sciences (NCATS), 2021).

Each structure is given as a SMILES string. In all, about 48,000 compounds went through this assay and about 120 (0.25%) were called active. Not shown: some 4% with an inconclusive outcome. Calls come from the whole dose curve; as a rule, active = well fitted activation curve with a large enough effect; inconclusive = small, poorly fitted or top-dose-only effect, or another doubt; inactive = no such curve, though single readings can be large or run the other way. The list shows a part of the results.

A short description of the assay: Primary qHTS for Identification of Small Molecule Activators of Huntingtin-Antisense Promoter Activity. Note: nearly all actives have a fitted effect of over 55% in size. The note with it: HEK293 HTT-AS promoter firefly luciferase reporter (activity 0% = vehicle and -100% = no light), 24 h; series mostly up to 57.5 µM; activity change, positive = activation: at the top concentration. Summed up:
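Firefly luciferase readout (Dual-Glo, 10 min RT) after 24 h, 37 °C compound exposure (final up to 57.5 uM) of HEK293 reporter cells cultured 24 h beforehand; PTC124 at 50 uM final as control inhibitor; activity scaled vehicle 0%, zero RLU -100%.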
A general note: In qHTS, concentration-response curves come from the screen itself.
Consider `COc1cc2nc(N3CCN(C(=O)C4CCCO4)CC3)nc(N)c2cc1OC` (configuration not stated), for which the activity change, positive = activation result is “inactive”.

`CCc1nc2nc(C)cc(Nc3ccc(Br)cc3F)n2n1`: the “activity change, positive = activation” value is inactive: -19.3%.

Regarding `Cc1ccccc1NC(=O)c1c2c(nc3ccccc13)C(=O)N(C1CCCCC1)C2`, the “activity change, positive = activation” value was inactive: -3.52%.

With `COc1ccccc1-c1cc(C(F)(F)F)nc(S(=O)(=O)CCCC(=O)Nc2cc(C)ccc2O)n1`, the “activity change, positive = activation” value is inactive: 5.36%.

In the case of `Cc1ccc2c(=O)c(C(=O)c3ccc(F)cc3)cn(CC(=O)NC3CCCCC3)c2n1`, the “activity change, positive = activation” value was inactive: -10.4%.

Turning to `CC(=O)Nc1ccc(S(=O)(=O)Nc2ccc(-c3cn4c(C)csc4n3)cc2)cc1`, the “activity change, positive = activation” value was inactive: -39.8%.

Consider `COC(=O)c1cc(S(=O)(=O)N2CCN(c3cccc(C)c3)C(C)C2)c[nH]1` (configuration not stated), for which the “activity change, positive = activation” value was inactive: -17.4%.

On to `COCCNC(=O)CCC(=O)N1Cc2cccc(OC)c2Oc2ncccc21`, for which the “activity change, positive = activation” value is inactive: -6.04%.

In the case of `CCSc1nnc2c(n1)OC(c1ccc(C)cc1)N(C(C)=O)c1ccccc1-2` (configuration not stated), the “activity change, positive = activation” value was inactive: -0.327%.

`COc1ccc(CNC(=O)CCCN2C(=O)CSc3c2c(C)nn3-c2ccccc2)c(OC)c1`: the “activity change, positive = activation” value was inactive: -14.2%.

Turning to `Cc1ccc(-c2[nH]c3ccccc3c2SCCNC(=O)c2ccc(S(=O)(=O)N(C)C)cc2)cc1`, the “activity change, positive = activation” value is inactive: -40.7%.

For `COc1ccc(Cl)cc1NC(=O)CCS(=O)(=O)c1cccc2nonc12`, the “activity change, positive = activation” value is inactive: -19.3%.

For the compound `Cc1ccc(NC(=O)C(=O)NCC(c2cccnc2)N2CCOCC2)cc1Cl` (configuration not stated), the “activity change, positive = activation” value is inactive: -21.1%.

`Cc1c(CC(=O)N2CCCCC2)c(=O)oc2c(C)c3occ(C(C)(C)C)c3cc12`: the “activity change, positive = activation” value is inactive: -6.77%.

Regarding `CCCCOc1ccc(C(C)NC(=O)c2cccc(Nc3nc4ccccc4n4nnnc34)c2)cc1` (configuration not stated), the “activity change, positive = activation” value is inactive: -4.27%.

On to `Cc1ccc(CN2CCSc3ccc(C(=O)NCCc4ccccc4)cc32)cc1`, for which the “activity change, positive = activation” value was inactive: 18%.

Take `COc1ccc(Cl)cc1NC(=O)C1CCN(c2nnc(C)c3c(C)n(-c4ccccc4)nc23)CC1`: the “activity change, positive = activation” value was inactive: -0.417%.

Take `O=c1n(Cc2cccc(F)c2)c2ccccc2c2nc(-c3ccccc3)nn12`: the “activity change, positive = activation” value was inactive: -17.1%.

`CN(C)C=NC(=O)c1cc2c(n(-c3ccccc3)c1=O)CC(C)(C)CC2=O`: the “activity change, positive = activation” value is inactive: -20.2%.

`Oc1ccccc1C=NCc1ccccc1`: the “activity change, positive = activation” value is inactive: 3.64%.

Turning to `COc1cccc(CSc2nc3n(n2)C(c2cccc(F)c2)C(C(=O)Nc2ccccc2C)=C(C)N3)c1` (configuration not stated), the “activity change, positive = activation” value is inactive: 3%.

On to `CN(C)c1cc2c(cc1NS(=O)(=O)c1ccccc1)n(C)c(=O)n2C`, for which the “activity change, positive = activation” value is inactive: 3.03%.

Take `Cc1cccc(N2CCN(C(=O)c3ccc(CS(=O)c4cccc(Cl)c4)o3)CC2)c1C` (configuration not stated): the “activity change, positive = activation” value was inactive: -49.7%.

Regarding `COc1ccc(CN(C(=O)Nc2cccc(Cl)c2)c2ccccn2)cc1OC`, the “activity change, positive = activation” value was inactive: -1.82%.

Turning to `COc1ccc(NC(=O)CCCSc2nc(-c3ccco3)cc(C(F)(F)F)n2)c(OC)c1`, the “activity change, positive = activation” value was inactive: -15.4%.

`COc1cccc(OCc2nc3ccccc3n2Cc2ccccc2C)c1`: the “activity change, positive = activation” value is inactive: -60.3%.

`CCOc1ccc(N(CC)C(=O)C2CCN(S(=O)(=O)c3cccc4nonc34)CC2)cc1`: the “activity change, positive = activation” value was inactive: -0.291%.

On to `COc1cc(NC(=O)Cn2nnc(-c3ccc(C(F)(F)F)cc3)n2)c(C(=O)O)cc1OC`, for which the “activity change, positive = activation” value was inactive: -5.05%.

As to `COc1ccc(CCC(=O)NC2CC(=O)N(c3cccc(F)c3)C2)cc1` (configuration not stated), the “activity change, positive = activation” value is inactive: -2.75%.

With `CCC(=O)n1nc(-c2cccnc2)nc1NCc1ccc(F)cc1`, the “activity change, positive = activation” value was inactive: 14.2%.

Turning to `O=C(Cn1c(=O)oc2cc(S(=O)(=O)NCc3ccccc3)ccc21)Nc1ccc(F)c(Cl)c1`, the “activity change, positive = activation” value is inactive: -28.2%.

Consider `O=C(O)c1ccccc1NCCc1ccccc1`, for which the “activity change, positive = activation” value was inactive: 48.4%.

`CCc1ccc(NC(=O)Cn2ccn(Cc3ccccc3OC)c(=O)c2=O)cc1`: the “activity change, positive = activation” value is inactive: -22.7%.

As to `Cc1ccc(NC(=O)c2c(C)oc3ncnc(N4CCCCC4)c23)cc1Cl`, the “activity change, positive = activation” value was inactive: -24.7%.

Turning to `Cc1ccc(-n2nc(C)c3c(C)cc(=O)n(CC(=O)N4CCCc5ccccc54)c32)cc1`, the “activity change, positive = activation” value was inactive: -20.6%.

With `CCn1cc(S(=O)(=O)c2cccc(Cl)c2)c(=O)c2cc(F)c(N3CCC(C)CC3)cc21`, the “activity change, positive = activation” value was inactive: -13.3%.

On to `COc1cccc(-c2ccc3c(N)c(C(=O)c4ccc(Br)cc4)sc3n2)c1`, for which the “activity change, positive = activation” value is inactive: -28.6%.

As for `COc1ccc(C)cc1NC(=O)CCc1c(C)nn(-c2ccc(N3CCOCC3)nn2)c1C`, the “activity change, positive = activation” value was inactive: 1.69%.

For `O=C(Cc1ccc(Cl)cc1)Nc1nnc2n1CCS2`, the “activity change, positive = activation” value is inactive: 0.52%.

On to `O=C(COCc1cc(-c2cccs2)on1)NCc1ccc(Cl)cc1`, for which the “activity change, positive = activation” value was inactive: -9.19%.

Consider `COc1cccc(CNC(=O)Cc2csc3ccccc23)c1OC`, for which the “activity change, positive = activation” value is inactive: 8.73%.

With `Cc1cc(C)c(NS(=O)(=O)c2ccc(-c3cnc(C4CC4)o3)cc2)c(C)c1`, the “activity change, positive = activation” value is inactive: -50.2%.

`COc1ccc(NC(=O)C(=O)NCC2(c3ccc(OC)c(OC)c3)CCCC2)cc1`: the “activity change, positive = activation” value was inactive: -15.3%.

`Cc1ccc(CSc2oc(-c3cccs3)nc2S(=O)(=O)c2ccccc2)cc1`: the “activity change, positive = activation” value is inactive: 6.83%.

`COc1ccccc1N1CCN(c2ncc3c(n2)CCN(Cc2ccccc2F)C3)CC1`: the “activity change, positive = activation” value was inactive: -14.2%.

For `CC(=O)c1ccc(N2CCN(c3ncnc4c3nc3n4CCCC3)CC2)cc1`, the “activity change, positive = activation” value was inactive: -31.9%.

Take `COc1ccc(CCNC(=O)Cc2c(C)c3c(cc(C)c4c(C)c(C)oc43)oc2=O)cc1`: the “activity change, positive = activation” value is inactive: -3.06%.
